PubChem BioAssay (NCI)
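How tested: cells in 96-well plates exposed to compound for 48 hours at five concentrations. Abbreviation: GI50, concentration required for 50% inhibition of growth. TGI is the concentration that stops growth completely.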

test system: NCI-H322M lung; test: NCI tumour cell line growth inhibition, 48 h

SMILES	GI50	TGI
Cn1cc(-c2cc(N)n3nc(-c4c[nH]c5ccccc45)cc3n2)c2cccnc21	12.7 µM	36.3 µM
O=C(N/N=C/c1ccc(Cl)o1)c1[nH]c2ccc(Br)cc2c1-c1ccccc1	0.631 µM	98.5 µM
COc1ccc(N2N=C(c3ccc4c(c3)OCO4)CC2c2cccc(NC(=O)CCNS(=O)(=O)c3ccc(Cl)cc3)c2)cc1 (stereo not drawn)	26.3 µM	> 100 µM
O=C(NNC(=S)NC(=O)c1ccccc1)c1ccc(OCc2nc3ccc(Cl)cc3[nH]2)cc1	1.82 µM	4.98 µM
